# Test results taken from the supplement of paper PMC11417369.
# ± gives the standard deviation of the averaged measurements. Some of the results follow.
# Test system: PfAP2-I AP2 domain 3 (GST-tagged)
# Test: gcPBM binding intensity (ln(normalized median fluorescence intensity)); higher = stronger DNA binding
# In short: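 GST-tagged P. falciparum DNA-binding domains produced in E. coli were incubated for 1 h on an Agilent 4 × 180k array of primer-extended double-stranded 36-bp intergenic genomic probes with negative controls. Binding intensity is the highest Masliner-normalised natural-log median intensity across replicate spots of either probe orientation, with bound protein detected by Alexa488 anti-GST antibody at 488 nm.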
row,Sequence,gcPBM binding intensity (ln)
1,AATTTGTTATGTATATGTACATAAATAGATATATGA [XGTACX_site3930],7.82 ± 0.54
2,AACCATATTTAGATTACACACAGTTTAAATATTTTA [CACACA_site6712],7.58 ± 0.57
3,AATATGAACAGACACACACACACAAAAAAAAAAAAA [CACACA_site2012],7.98 ± 0.71
4,TCTTGACGAAGTAGAAGGATATATATATAAAAAAAA [CACACA_negctrl_site641],7.85 ± 0.59
5,AGGAGGTCAGTTCACAGTACCCAGAAAACTCTACGA [XGTACX_site1992],7.84 ± 0.27
6,TCCAGGTATTTATTCTGTACACATAAAACATTTTAT [XGTACX_site8472],7.79 ± 0.48
7,TCGTCTCTTCTTGTTCTGTTTTAGAAGGCTATATAT [CACACA_negctrl_site180],8.02 ± 0.65
8,ATATATATATATATATGTACATATTTTAATAATTAA [XGTACX_site8549],9.51 ± 0.42
9,TGTTGTTACATATATACACACATATATATATTATAT [CACACA_site2397],7.83 ± 0.52
10,CGCGCACACGGACACACACACACACGGATATAAATA [CACACA_site7102],8.05 ± 0.33
11,TGGTATATATTTCCTTGTACATATAATATATATTGT [XGTACX_site3961],7.75 ± 0.64
12,TAATATAGTATAGTATGTACATATAATTAGAATATT [XGTACX_site4053],8.15 ± 0.41
13,CATATTTCTTTATTGGCACACATTTTTTCAATTATA [CACACA_site1618],8.32 ± 0.56
14,TGAAATAAATAATGCACACTCTACAGATATACGTAT [CACACA_site5270],11.1 ± 0.66
15,TTGAAAATACAAAATTGTACAAAGATTTAAATAAAA [XGTACX_site1182],7.75 ± 0.63
16,AAAAAAAAAAAAAACACACACAAATTTAATCTATAT [CACACA_site6894],8.22 ± 0.5
17,TGTTATTACTTTATATCATCTTAAAATAAGCATATT [CACACA_negctrl_site1501],7.47 ± 0.61
18,TATTTATTTATGTGTTGTACAAATAAATAGAGGTAT [XGTACX_site6408],8.16 ± 0.48
19,ATATATTAAAAACGATGTACCCTGAACTAAAAAAAA [XGTACX_site4986],7.75 ± 0.52
20,TTTATTTATTACAATTTTTGAATCACCACACAGTCG [GTGCAC_negctrl_site413],7.88 ± 0.13
21,ATCATGTTATATACATGTACATATATATATATATAT [XGTACX_site1329],9.47 ± 0.71
22,TATATGAAAATGTTCATACACACATAAAAAAAAAAA [CACACA_site3237],7.96 ± 0.7
23,TAGTTTTCTTAAAGATGTACATTTTAAAAATAATCT [XGTACX_site255],7.955 ± 0.021

row,Sequence,gcPBM binding intensity (ln)
1,TAGATATATAATTTGCGTACACAAATAATATATTTT [XGTACX_site6397],7.97 ± 0.2
2,AATACAAATATATACACACATACATACATACATATA [CACACA_site3147],7.82 ± 0.47
3,ATATATATATGTTACTGTACTAATTTATATGTTAAT [XGTACX_site3341],9.28 ± 0.16
4,CACAAAAATAGACACACACACATATAGATTTATTAT [CACACA_site7676],7.79 ± 0.37
5,TTATGGTTTAAATAAAGTACAAATAAATAAATATAT [XGTACX_site5777],7.88 ± 0.59
6,ATACACATATGTTAATGTACACATATATAATATTTA [XGTACX_site163],7.89 ± 0.4
7,TTTCTTAAATATATTGAGGAATAAAAAGAAGAAAAG [GTGCAC_negctrl_site281],7.74 ± 0.49
8,TTATGAAAAATAAAATTAGAAAAAAAGGAAAATGAA [XGTACX_negctrl_site232],7.73 ± 0.65
9,AGGTTACATAGATTTTGTACATATATATTATTTTTT [XGTACX_site3040],7.66 ± 0.59
10,AAAAAATTATAAAAGTGTACATATATATATATATAT [XGTACX_site154],9.42 ± 0.4
11,GTTCATACTTAATATTGTACTTTTCATGTAGTGTAT [XGTACX_site6613],7.85 ± 0.55
12,TACAAATATATATGCACACACATATACATACATATA [CACACA_site2182],9.39 ± 0.39
13,TATTAGATATAATATATACACACCAACGAACGAAGA [CACACA_site1134],8.2 ± 0.52
14,AAATAAATATTTATATGTACATATATTTTATAATAC [XGTACX_site7041],7.8 ± 0.36
15,TAACATATTTTTAATACACACTCAAAAAAGTACTTA [CACACA_site5638],7.92 ± 0.28
16,TTCATTCAAATTAACGTGCACATTATTAGTAAAAAC,11.05 ± 0.035
17,TTATATAATTTAATAGTGCAATTATATTAATTTTTC,9.82 ± 0.42
18,TATACCTATAGACACACACACATATAGATTTATATA [CACACA_site7124],7.85 ± 0.38
19,CGCATACACAGACACACACACACATATAAATATGTA [CACACA_site6444],8.03 ± 0.35
20,AATTTTTTATTAAACACACAAACATATATATATATA [CACACA_site1937],9.23 ± 0.13
21,GAAATTATGTAAAAAAGTACTAACATACATATATAT [XGTACX_site1794],7.77 ± 0.68
22,GAAAACGTCTTTAATAGTACACAGTTAAAAAATACA [XGTACX_site8976],7.63 ± 0.57
23,TTTTTTCATTATATATAGTATGCAAGTCAAATTAAT [GTGCAC_negctrl_site207],7.78 ± 0.54

row,Sequence,gcPBM binding intensity (ln)
1,TATATATATATATAAAGTACATATAATATATATTTG [XGTACX_site5412],9.27 ± 0.38
2,ACAAAATTTACAAAATGTACAAAATTTACAAAATAT [XGTACX_site3542],7.53 ± 0.52
3,CTATAAAAATATAATTGTACAAATTTTTATATCTTA [XGTACX_site7722],7.49 ± 0.39
4,AAAAAAAAAAAAAACATACACACATTGAACTTTTAT [CACACA_site3251],8.18 ± 0.54
5,TTTTTGTGCATTGATTGTACTTTCTAGGATTATTAA [XGTACX_site7070],10.16 ± 0.049
6,TTTATCCAATAATCTGGTACACAATAATCATTCATG [XGTACX_site6192],7.63 ± 0.42
7,ATTCATATATACTTCACACACATTTTATCATTCAAA [CACACA_site2468],8.16 ± 0.61
8,TTTCTATTTATTTCAAGTACTAAAAATATATATAAC [XGTACX_site8203],7.83 ± 0.29
9,TTTTTTTACTTAATAGTTCAACATATATCTCAATGT [CACACA_negctrl_site620],7.55 ± 0.55
10,TAAATACTTTTATGTACACACATATAGATATATATT [CACACA_site5416],8 ± 0.16
11,TTGAACCTGATAAATACACACAATATATATTTTTTT [CACACA_site2173],7.61 ± 0.59
12,GTGATAAATATTATATGTACATATAATATTTATGTC [XGTACX_site8023],8.07 ± 0.28
13,TCAAAAACGAGACATGCATGCAATTCATTTTGATTC [TGCATGCA_site212],7.53 ± 1.1
14,CCATTCTTACTTTATTGTACTTGAAAATTTTTTTTA [XGTACX_site6160],8.12 ± 0.38
15,TATATAATAAGATATGCATGCACATGTAAAATGAAT [TGCATGCA_site499],9.02 ± 1.1
16,TTAAAATAGATAAATAGTACTCTTTCCATTATGTAA [XGTACX_site6299],7.41 ± 0.59
17,ATAATGTTTTATAATACACACATTAGATATATAAAT [CACACA_site7834],7.86 ± 0.46
18,TCATATAACACTTGATGTACAAGAATCCAAGTTGCA [XGTACX_site8758],7.78 ± 0.55
19,ATATGTATAATATATATATATATATATATATATATA [CACACA_negctrl_site623],9.09 ± 0.57
20,ATATATATTTAAACTACACACGCATATCTTAGAAAT [CACACA_site8348],7.86 ± 0.49
21,ACCCACTTTTGAGGTGTGCACAATAAATTGGACATT,10.52 ± 0.021
22,AGGAAAAAAAAAATGACACACATATTTGAATTAAAA [CACACA_site1352],7.54 ± 0.64
23,TAAGAGATATTTTATTAAATGTTTTATGAATCATGT [TGCATGCA_negctrl_site264],7.17 ± 0.6

row,Sequence,gcPBM binding intensity (ln)
1,GTACATACATAAAACACACACATATAGATTTATATA [CACACA_site6945],7.73 ± 0.47
2,ACTCATAAAAATAGATGTACTTTAATAATTTGATTT [XGTACX_site8763],7.68 ± 0.2
3,AAAAAAAAAAGACACACACACATATAAATATAAATA [CACACA_site6899],7.67 ± 0.42
4,TCAAACGGTTAAATATGTACATATATATATATATAT [XGTACX_site2339],9.07 ± 0.69
5,TTTCAAACAAAAAGACGTACACTGAAGTTATCCGTC [XGTACX_site8824],7.59 ± 0.2
6,TTGTATTCATAACAACGTACATATTTTGTAACTAAA [XGTACX_site4029],7.68 ± 0.49
7,AAGGAAATATAATATACACACATAAGTGTACTTCTA [CACACA_site6079],7.66 ± 0.44
8,CAATCAAATAGACACACACACACCTAAACATAAAAG [CACACA_site7322],7.96 ± 0.46
9,ATATTAAAATGAAAATATAAAAAAAAAAAAAAAAAA [CACACA_negctrl_site1559],8.09 ± 0.38
10,TATATATATAAACACACACACACCAAAGCGTAGCGC [CACACA_site7903],8.99 ± 0.41
11,TATTAATAAAAGCATTGTACAGTAATAAATAAATAA [XGTACX_site2924],7.94 ± 0.73
12,AGCCATTAATTCTCTACACACCTTTATGTTATTTAG [CACACA_site3635],8.06 ± 0.74
13,ATTCATAATATTATAACACACGCTTATTACATAAAG [CACACA_site980],7.99 ± 0.57
14,CGCATGTATTTTGTGTGTACTAATTATAATCAACTT [XGTACX_site4709],7.99 ± 0.47
15,TTTTACATATACATGTGTACATAACAAAGAATGTTT [XGTACX_site2406],7.88 ± 0.57
16,AGTGTATTAATTCTCACACACTAAGAAAAAAAAAAA [CACACA_site6007],8.39 ± 0.16
17,TTTTTTAATAAATGGTGTACATATTTTTTTTATACT [XGTACX_site8584],8.05 ± 0.27
18,TAATATTGTATTTATGTACACACATTTTTGGAATAT [CACACA_site8371],7.81 ± 0.4
19,TTTAATATTTTTTTTTGTACTTATTTGTAGAAATAT [XGTACX_site3046],7.7 ± 0.35
20,CTATTTTTTGTATAAACATGCATATAGTAGATATGG [TGCATGCA_site670],7.92 ± 0.39
